According to the RNAGym collection of RNA variant scans (doi:10.1073/pnas.2313332121):
Variants at the floor of the assay are shown more often than the library holds them.

B1: TPR 5TU (parent)
chain: GGAUCUUCUCGAUCUAACAAAAAAGACAAAUCUGCCACAAAGCUUGAGAGCAUCUUCGGAUGCAGAGGCGGCAGCCUUCGGUGGCGCGAUAGCGCCAACGUUCUCAACUAUGACACGCAAAACGCGUGCUCCGUUGAAUGGAGUUUAUCAUG

Variants of: B1
Assay: polymerase ribozyme fitness, log enrichment relative to wild type (log ratio); higher = more active; in vitro selection for triplet polymerase activity
Procedure, shortened: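 Genotype fitness is the logarithm of its enrichment divided by wild-type enrichment, using inverse-variance-weighted averages of replicates. That logarithm is base 2. Enrichment was measured by Illumina sequencing of input and output libraries from one triplicate in vitro selection round, with frozen incubation at −7 °C, on PCR-built, transcribed mutant libraries of each subunit of a heterodimeric triplet polymerase ribozyme, retaining genotypes with ≥10 input reads and ≥1 read per output.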

Point of comparison: A29U C95U, “polymerase ribozyme fitness (log ratio)” value -3.54. Against it:
- A29G G81U G92A C125U A138G — lower, ≤ -4.2
- A29G G84C G88A — lower, ≤ -4.2
- A29G G86A C95U A147U — lower, ≤ -4.2
- A29G G86A U101G C125G — lower, ≤ -4.2
- A29G G86U G100U — lower, ≤ -4.2
- A29G G88C — lower, ≤ -4.2
- A29G G136A U145G — lower, ≤ -4.2
- A29G U31C C36U C54G U82C G86C C93U — lower, ≤ -4.2
- A29G U44A C72U G94U A98G A106U A121U A142C — lower, ≤ -4.2
- A29G U45A A64G G68U C85A U139G — lower, ≤ -4.2
- A29G U45A G48A C51G U55A C95G U127C G141A — lower, ≤ -4.2
- A29G U45A G50A G86A A110G A119U — lower, ≤ -4.2
- A29G U45G A52C G88C U146G — lower, ≤ -4.2
- A29G U53A C103A G143A U144G — lower, ≤ -4.2
- A29G U55G G94A C108A A119G — lower, ≤ -4.2
- A29G U61A G126C — lower, ≤ -4.2
- A29G U82A C118U U144G — lower, ≤ -4.2
- A29G U82C C87G — lower, ≤ -4.2
- A29U A30C G58U G74U G133C — lower, ≤ -4.2
- A29U A30G C57G C105U C108U — lower, ≤ -4.2
- A29U A30G C116A G133C — lower, ≤ -4.2
- A29U A37C G80A G88C G133U — lower, ≤ -4.2
- A29U A37G C54U C87G C116A — lower, ≤ -4.2
- A29U A37U C72G C95U C114U G143U — lower, ≤ -4.2
- A29U A37U C75A C76A U77A C95G C125U G136A G141U — lower, ≤ -4.2
- A29U A39G A52C G58C A91U U145C — lower, ≤ -4.2
- A29U A39U A47C U55A A110U C125A G128A — lower, ≤ -4.2
- A29U A40C C87G — lower, ≤ -4.2
- A29U A40G — lower, -4.2
- A29U A40G A60U A64G C93U A122U U127C C149U — lower, ≤ -4.2
- A29U A40U C95G G100A G140U A142U — lower, ≤ -4.2
- A29U A40U G68U C69U G92A G140C — lower, ≤ -4.2
- A29U A40U G83C G133A G152C — lower, ≤ -4.2
- A29U A41U A47U G86U U148A — lower, ≤ -4.2
- A29U A41U A52U G81C — lower, ≤ -4.2
- A29U A41U G71U — lower, ≤ -4.2
- A29U A41U U53A C79U A142C — lower, ≤ -4.2
- A29U A47C C54U G84C G94A C96A G117C A121C G140U — lower, ≤ -4.2
- A29U A47U — lower, ≤ -4.2
- A29U A47U G71A G86A U90A — lower, ≤ -4.2
- A29U A49C A110G U144C — lower, ≤ -4.2
- A29U A49C C76A G84U U104G — lower, ≤ -4.2
- A29U A49C G81U C96G A98C C116U G141C — lower, ≤ -4.2
- A29U A52C G68C C96U C99G A121U G126A A150U — lower, ≤ -4.2
- A29U A52G G80C A91U U145C — lower, ≤ -4.2
- A29U A64U A73G U77A G94U C99U U134C — lower, ≤ -4.2
- A29U A66C C75G C85G U145A — lower, ≤ -4.2
- A29U A66U C69U A98G — lower, ≤ -4.2
- A29U A66U G92A U111G — lower, ≤ -4.2
- A29U A73G G92U G100U — lower, ≤ -4.2
- A29U A89U — lower, ≤ -4.2
- A29U A91U — lower, ≤ -4.2
- A29U C35G G71C — lower, ≤ -4.2
- A29U C35U A97G U139A G140C — lower, ≤ -4.2
- A29U C36A C85G — lower, ≤ -4.2
- A29U C36A U55A C85G A98G — lower, ≤ -4.2
- A29U C36U U55A C85G — lower, ≤ -4.2
- A29U C38U A39G U101G — lower, ≤ -4.2
- A29U C38U G86A — lower, ≤ -4.2
- A29U C43A C85G C116U A120U G141C — lower, ≤ -4.2
- A29U C57A G68U C118G U139C U148A — lower, ≤ -4.2
- A29U C57G A107C G128U G141C — lower, ≤ -4.2
- A29U C57U U61C A66C C87A C123U — lower, ≤ -4.2
- A29U C63G A64C C93A C105G A107G C108U G152A — lower, ≤ -4.2
- A29U C69G C79U C95U U109G — lower, ≤ -4.2
- A29U C72U C96U C129A A137C — lower, ≤ -4.2
- A29U C75G C85A U109C G128A C129G A147C U151G — lower, ≤ -4.2
- A29U C76A C87A C93A C129A — lower, ≤ -4.2
- A29U C85U — lower, ≤ -4.2
- A29U C87G A147G — lower, ≤ -4.2
- A29U C87G G100U U101G — lower, ≤ -4.2
- A29U C87U — lower, ≤ -4.2
- A29U C87U A98U G100C — lower, ≤ -4.2
- A29U C93A — lower, ≤ -4.2
- A29U C93A U130G G133A G143U — lower, ≤ -4.2
- A29U C93A U146G — lower, ≤ -4.2
- A29U C93U A150C — lower, ≤ -4.2
- A29U C95G — lower, ≤ -4.2
- A29U C99U U145G — lower, ≤ -4.2
- A29U C103U — lower, ≤ -4.2
- A29U C114U A137G G141A U148C — lower, ≤ -4.2
- A29U G42A G50A C85U G117A — lower, ≤ -4.2
- A29U G42U G84U C114A — lower, ≤ -4.2
- A29U G46A C69G U78G G94U C96G C118G — lower, ≤ -4.2
- A29U G46U G70U U90G C95U A115G G117U A120U — lower, ≤ -4.2
- A29U G48A C75G C93U C105G G136A — lower, ≤ -4.2
- A29U G48C A60C G65A A66C C76U A91G — lower, ≤ -4.2
- A29U G48U G84A A122G A137C — lower, ≤ -4.2
- A29U G50A U55G G81A C96A U145C — lower, ≤ -4.2
- A29U G50C G68C G136C — lower, ≤ -4.2
- A29U G58C C96U U101G C118G C132G — lower, ≤ -4.2
- A29U G59A C85G G92A C116G A120U — lower, ≤ -4.2
- A29U G59U U82G C93U C114G G141C — lower, ≤ -4.2
- A29U G62A G67A U102A C125U U146G — lower, ≤ -4.2
- A29U G67A C75U C114U — lower, ≤ -4.2
- A29U G67C C79A U82A G94U C95G C131G U145A — lower, ≤ -4.2
- A29U G71C C93U U109G G124C — lower, ≤ -4.2
- A29U G83C — lower, ≤ -4.2
- A29U G88C C105G C123U U144A — lower, ≤ -4.2
- A29U G117U — lower, ≤ -4.2
- A29U G126A — lower, ≤ -4.2
- A29U G140C — lower, ≤ -4.2
- A29U G140C G143U — lower, ≤ -4.2
- A29U G141C — within 0.2 log units, -3.49
- A29U U31A G80A C96A A107U — lower, ≤ -4.2
- A29U U44A C51U A73U C85G — lower, ≤ -4.2
- A29U U44A C54A C79G C123A A137G G140A — lower, ≤ -4.2
- A29U U44A C85G G124A G152A — lower, ≤ -4.2
- A29U U44A U101C A106C A113C A122U G140U — lower, ≤ -4.2
- A29U U44G G50U C75A C96A C105U C125A — lower, ≤ -4.2
- A29U U45A U53A G84U C95A C149A — lower, ≤ -4.2
- A29U U45C G86A U101G G112A C116G G117A — lower, ≤ -4.2
- A29U U53A A91U U102A — lower, ≤ -4.2
- A29U U55A C87G C132G — lower, ≤ -4.2
- A29U U55A G62C — lower, ≤ -4.2
- A29U U55A G62C C116G — lower, ≤ -4.2
- A29U U55G G92C A107U — lower, ≤ -4.2
- A29U U56A C95U A107G C118G G143A — lower, ≤ -4.2
- A29U U56A U102G — lower, ≤ -4.2
- A29U U56C A120G U148C — lower, ≤ -4.2
- A29U U56G A91G G92U G100U U101G C105A A107U — lower, ≤ -4.2
- A29U U61A C99U U101G A107C U130G U135A — lower, ≤ -4.2
- A29U U102G G141U — lower, ≤ -4.2
- A29U U139A — lower, ≤ -4.2
- A29U U148G — lower, ≤ -4.2
- A30C A37C A49G A52C U55A U82G C87U U104G — lower, ≤ -4.2
- A30C A39U G50A G94C G124U — lower, ≤ -4.2
- A30C A40C C87A A121U — lower, ≤ -4.2
- A30C A47C C85G C93A A138G — lower, ≤ -4.2
- A30C A47C G50A U53A G86A U139C G141U — lower, ≤ -4.2
- A30C A47G A49C C87U C95A — lower, ≤ -4.2
- A30C A47G G74A U90G A121G G140U — lower, ≤ -4.2
- A30C A47U A49U G50U U56A G94A G140C — lower, ≤ -4.2
- A30C A49C C51G G94C G126U G133A U139A — lower, ≤ -4.2
- A30C A49C C93G A142C — lower, ≤ -4.2
- A30C A49G G86A C96A C105G C108U U145C — lower, ≤ -4.2
- A30C A52C U56A C87U G92C C99U U130C — lower, ≤ -4.2
- A30C A52G A106C U146C — lower, ≤ -4.2
- A30C A52U C96G U102G G117A — lower, ≤ -4.2
- A30C A60U A66G U82G C85U G94C C105U — lower, ≤ -4.2
- A30C A73G C79G G117U A138U — lower, ≤ -4.2
- A30C A120G — lower, ≤ -4.2
- A30C A150C — lower, ≤ -4.2
- A30C C32A C51G A89G C93U A106G U145G G152A — lower, ≤ -4.2
- A30C C32A G48C C57U C93A A98C — lower, ≤ -4.2
- A30C C32A G74U C76A U139A — lower, ≤ -4.2
- A30C C35U U44A U61A G62A G141A C149U — lower, ≤ -4.2
- A30C C36A U45A G50C C93U A119G A137C U145A — lower, ≤ -4.2
- A30C C38U G50U G65U G80C — lower, ≤ -4.2
- A30C C43A U56G A91G C149U — lower, ≤ -4.2
- A30C C43G A52C G65U C93U A106G G141U — lower, ≤ -4.2
- A30C C43G U45A C87A C103A — lower, ≤ -4.2
- A30C C51U — lower, ≤ -4.2
- A30C C51U A52U U78G C85A C114G — lower, ≤ -4.2
- A30C C54A U82C G136C C149A — lower, ≤ -4.2
- A30C C63A G83A A150C G152A — lower, ≤ -4.2
- A30C C85A A91U A97U — lower, ≤ -4.2
- A30C C87G C123G G124A — lower, ≤ -4.2
- A30C C87G U101C — lower, ≤ -4.2
- A30C C95G C108U C132G G133U — lower, ≤ -4.2
- A30C G46U C95G U102G — lower, ≤ -4.2
- A30C G46U G94U G143A — lower, ≤ -4.2
- A30C G48A G59A A115G A121U C125G G141C A142G — lower, ≤ -4.2
- A30C G50A A52C A66G G80A C85A C125A — lower, ≤ -4.2
- A30C G50A C87A A110U U144C — lower, ≤ -4.2
- A30C G50U U78G G86U A115G — lower, ≤ -4.2
